# Test results: publication PMC12136788
# This is one part of the list.
# T1: UNK ZnF1-3 (human, UniProt Q9C0B0 31-174)
# T1 sequence: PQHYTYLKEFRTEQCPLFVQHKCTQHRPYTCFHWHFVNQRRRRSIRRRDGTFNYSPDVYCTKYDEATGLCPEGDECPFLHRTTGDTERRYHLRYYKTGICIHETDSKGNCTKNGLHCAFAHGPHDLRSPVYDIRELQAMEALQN
# B1: chr12:25667166:25667167:+_ENSMUSG00000036333_ENSMUST00000066652|mus_hu|FALSE|FALSE (ssRNA)
# RNA: GGGAGUUCUACAGUCCGACGAUCUCCUCUACAUAAUUUAUGACGCUCUGUGAUAUCAAAACUGACAUUUUCACAGAAAGCUGCAAUUAACUUUAUUUGAAUACCUGGUCCUCAGCUCCGGCGGAACGGGCCCGCUCGGCUGCACAACAGAGGAUUGAGCAUCA
# B2: chr14:24607556:24607557:+_ENSG00000092010_ENST00000206451|hu_hu|FALSE|FALSE (ssRNA)
# RNA: GGGAGUUCUACAGUCCGACGAUCAUCACCCACAUGGGGCUGCUUGGCUGCUUUAGUCACUGCAUCACCACGCUCAGAGAAAUACUUAGAGAUUUGAGUGUGGAAGCCUUCUAGCUUGGUGUGGAGGCUGGUCAUCAGCUCAAACAACAGAGGAUUGAGCAUCA
# B3: chr1:25669491:25669492:+_ENSG00000183726_ENST00000374358|perfect_dup|FALSE|FALSE (ssRNA)
# RNA: GGGAGUUCUACAGUCCGACGAUCACAGGUAUGGUAUGAAUGGUUGAAUUGAUCCAUCCUGGGGUACAUGACAGCCGCGUCUAUGAUGAUCCACCAUCCCGUGAAAAAUAGAACGCCAGCAGCGAUGGAGGCGAUCGUGUUCCGCAACAGAGGAUUGAGCAUCA
# B4: 40924266_40931936_1095_CDS_ENSMUSG00000028423_ENSMUST00000098143|mouse|control|control (ssRNA)
# RNA: GGGAGUUCUACAGUCCGACGAUCAAUCAGGGAACCUGUAUGUGUUUCCACAUUCUUCAGCAUAUGGUUCUGUUUGCCUCUGGGAAAAGGAGAUAGCACUUGGGGAUCCUGUCUCCUUACAGCAGUUUUCUCUUGGUUAACCCUCAACAGAGGAUUGAGCAUCA
# B5: chr1:220275481:220275482:+_ENSG00000067704_ENST00000302637|hu_hu|motif|central (ssRNA)
# RNA: GGGAGUUCUACAGUCCGACGAUCAAAUGCUGAUUUCUGUUUCUCAAUGGCUGCUUUAGCAAAUGAUCUAGCUUUCUUUCGGAUUUCCAUAGCUGAAAGAUUCUGAGCUUCUCUACCAAGUUCUGAUAAUACUUUUAUUUCAAUCAACAGAGGAUUGAGCAUCA
# B6: chr6:65046092:65046093:+_ENSMUSG00000029920_ENSMUST00000031984|mus_mus|FALSE|FALSE (ssRNA)
# RNA: GGGAGUUCUACAGUCCGACGAUCUAGAUGUUGAUAGCGGAUAGAGCCCAUAUUCUUCAGCAUAUGGCCUUCAUCAAAAAUUGCAUAAUUCAGUUUCAGUCGUCGAAAGAGACUGCGGUCAUCAGAGCUGCUGAUUGCACAAUUCAACAGAGGAUUGAGCAUCA
# B7: chr12:55960871:55960872:-_ENSMUSG00000062929_ENSMUST00000078124|mus_mus|FALSE|FALSE (ssRNA)
# RNA: GGGAGUUCUACAGUCCGACGAUCUACUAAGCUUUAAGACUGCUAUACGAUUUUUUUUUCCCAAUUCAUUUUGGAAAAGCUAUGAAGGAACUGUGGCUGAGACAAACAUUCCUAAACAUCACAAUCAUCAUUAACCUUCGAAUGCAACAGAGGAUUGAGCAUCA
# B8: 59949808_59952380_2635_CDS_ENSG00000108506_ENST00000444766|human|control|control (ssRNA)
# RNA: GGGAGUUCUACAGUCCGACGAUCCAGUGGGGGGCAUCUGUGAACCCUCUGAUCACACCUUAGGACAAUGAGAGGAUCUAUCAUCAGGUCAUUCUGAGUAUACUUUUGUUGUCGUACAAACUUUAUUGAAGGCUGAAGUGCAUUCAACAGAGGAUUGAGCAUCA
# B9: chr11:99246770:99246771:-_ENSMUSG00000019761_ENSMUST00000103131|mus_mus|motif|central (ssRNA)
# RNA: GGGAGUUCUACAGUCCGACGAUCGAAGAAAUACAGAAACCACAAAACACCUUUUAGACCUUAAUUUCAAGGAGUGAACCGGUUUCCACAGACCAUUAAGACAAAAGUGUUUCUUGGACAUUUAUGUUUUCCACACGUCUGUCCCAACAGAGGAUUGAGCAUCA
# B10: chr16:50257146:50257147:+_ENSG00000121274_ENST00000436909|hu_hu|FALSE|FALSE (ssRNA)
# RNA: GGGAGUUCUACAGUCCGACGAUCUAUCCGGAUGCCAGUCUUUAAAUAAUUGAAGUGUCGUCCAUAUAAUUCAAAAAAUUCUAUUAAGAGAACACCAUAGUUUGUAUUGGGGAUGCAAGCAUCUUCCCUGGGAUGUAACUGAAGCAACAGAGGAUUGAGCAUCA
# B11: chr19:8913615:8913616:-_ENSMUSG00000071658_ENSMUST00000096259|mus_hu|mus_mus_mus_hu_False|28_98 (ssRNA)
# RNA: GGGAGUUCUACAGUCCGACGAUCAGGGUACCAAAACACCCUGCCUCAAAUGGGUGCCCCACCCAGUAGGGAGUUGCAGCUGAAAGUAUCUGAUGCAGAAGCAGUGAAUGCAGAGAAGGAGGCCCCUGGGGAGGGCCAGGCCAGCAACAGAGGAUUGAGCAUCA
# B12: chr9:82820052:82820053:-_ENSMUSG00000032253_ENSMUST00000034787|mus_mus|FALSE|FALSE (ssRNA)
# RNA: GGGAGUUCUACAGUCCGACGAUCACCAUGUCCUUGUCCUUCAAUCAUAUUGAAAUAAGAUCGAACUUUGACUCCUCUUGCUAGAUCCCACACUAUCACAUUUCCAUCAUGACCAGCAGAGAAGAGAACUCUAGGAUCAAAUGGCAACAGAGGAUUGAGCAUCA
# B13: 139340129_139341384_6848_CDS_ENSG00000148396_ENST00000313050|human|control|control (ssRNA)
# RNA: GGGAGUUCUACAGUCCGACGAUCGGGGAGUUCAGAGCCAGGGAGUGACGCUGCAGAGCUUAAAACCUUGGGCUCUGGGGCAGGCUCUGGAUUGGCCAGGCCCCUAGCUGCUGCAGGCCCUUCCCUGCCAGUCCCGUCUGGAAGCAACAGAGGAUUGAGCAUCA
# B14: chr22:19452774:19452775:-_ENSG00000070010_ENST00000399523|hu_hu|hu_hu_hu_mus_False|78_78 (ssRNA)
# RNA: GGGAGUUCUACAGUCCGACGAUCCUUCUCAUUGUAGUUGAUAGCAAUCACAUCUCCGGUGGUCAGACAGGCGAAGUUUCUCAAUGCAUUUUCUAAUACCGCUUUAGGGUUGGUAAUAUCCAGGAAGUCUGGGCUCUGAGGCUGCAACAGAGGAUUGAGCAUCA
# B15: 59989378_59996827_742_CDS_ENSG00000108506_ENST00000444766|human|control|control (ssRNA)
# RNA: GGGAGUUCUACAGUCCGACGAUCUCCAAGACUUUCUUCAUCUUGUCGUUCUCCAUUUUUUAUCAGGCCCCUACAAACUUCAUUAAAACUAUCAGGAACAUUGGCCACCAAGAGACACAAGAACCAGGCACCAUUUCUAACAUGCAACAGAGGAUUGAGCAUCA
# B16: chr5:128440902:128440903:+_ENSG00000066583_ENST00000173527|hu_mus|hu_hu_hu_mus_True|1_78 (ssRNA)
# RNA: GGGAGUUCUACAGUCCGACGAUCUUGAACGGUGCUGCCAAGUCCUUUGGGGUAUUGUUCUGUUACAAUAACUGGAAUCCCUAAGAUCCGAGCUCCUUGCAACAGUCUCUGUCCCACACUAAUGAUGUCCCCAAAGUACUUGAUCAACAGAGGAUUGAGCAUCA
# B17: chr4:103717905:103717906:-_ENSG00000109332_ENST00000394803|hu_hu|FALSE|FALSE (ssRNA)
# RNA: GGGAGUUCUACAGUCCGACGAUCCAGUGCUAUAUUAAACAGUGUAUUGGAAGAUAGAUUAACUAAUAGCUCCAAGCCUCCUAACAAUUUAAAUGAAAAUUACAAAAUGUUUGAGACCCUAUUUUGGAAUACAAAGGGUGUUUGCAACAGAGGAUUGAGCAUCA
# B18: chr9:100410314:100410315:+_ENSG00000136937_ENST00000375147|hu_hu|motif|central (ssRNA)
# RNA: GGGAGUUCUACAGUCCGACGAUCGUGCCGUUCCUGCCAGCGAUCCUUUUUCAAUUUCUGAAUCUGGGCCCACAGGCAAUCGGAAUACUCUUCUUGUGGAUGUGGUUUAUCAGCAGUCCAUACCUGUAACAUGGGUACAUGAGUCAACAGAGGAUUGAGCAUCA
# B19: chr13:51244491:51244492:+_ENSMUSG00000021395_ENSMUST00000095797|mus_hu|FALSE|FALSE (ssRNA)
# RNA: GGGAGUUCUACAGUCCGACGAUCCAGAGUUUGUGAUGACAUCUAGGAUGUUUUCACCAAAUCGUAGACAUAAAUAUGGAAAUCAUCAUCAAACUUGAUGAAAUAGACGGAGGGCUUGGCUUCUACUUGAUGAAUGACCAUGCCCAACAGAGGAUUGAGCAUCA
# B20: chr11:77336104:77336105:-_ENSG00000074201_ENST00000525064|hu_mus|hu_hu_hu_mus_False|78_98 (ssRNA)
# RNA: GGGAGUUCUACAGUCCGACGAUCCUCACACAUUGCUGUGAACAUUGCCUCCAAUGCUGAUUUAUCACUGGGCACAAAUCGAAAUUCAGAAAUGGGUUCAACAUCAUCAUUGUCUUCCUCAUCUUCAUCAGAGAGAGGUUCUUUCAACAGAGGAUUGAGCAUCA
# B21: chr13:42895476:42895477:+_ENSG00000023516_ENST00000025301|hu_hu|FALSE|FALSE (ssRNA)
# RNA: GGGAGUUCUACAGUCCGACGAUCAUGUAGUGGUUAAAUAAGCAAAUGCUGAACUCAGCACAGCUCUAGCAAAAUGCAAAGGAAAUAAGAAAAGCCUCACCUCAGAAUGAUUACACCAUAAACAGAAAUAAACAUUUUCAAACACAACAGAGGAUUGAGCAUCA
# B22: chr1:66480114:66480115:+_ENSMUSG00000015222_ENSMUST00000024639|mus_hu|mus_mus_mus_hu_True|58_58 (ssRNA)
# RNA: GGGAGUUCUACAGUCCGACGAUCUGGCCUGUGGCGGAUGUUCUUCAGAGAGCCACAUUUGGAUGUCACAUGGCUUAAGUCUAUCUUCUUGGUAACAAUUUGUACCUGCCCCCCUUUAGGCUGGUAUUUGAUGUUGUCUGUUGACAACAGAGGAUUGAGCAUCA
# Target: T1, UNK ZnF1-3
# Test: nsRBNS (natural sequence RNA bind-n-seq); RBNS binding buffer (assumed for nsRBNS): 25 mM Tris pH 7.5, 150 mM KCl, 3 mM MgCl2, 0.01% Triton X-100, 500 ug/ml BSA, 20 U/ml SUPERase-In, 4 C; UNK is unkempt and MSI1 is Musashi-1; names of the RNAs are library labels; protein concentration not given here; high values mean tight binding
row,Binder,binding signal [enrichment R]
1,B1,0.597
2,B2,1.32
3,B3,2.1
4,B4,0.511
5,B5,0.8
6,B6,0.735
7,B7,0.948
8,B8,1.27
9,B9,0.903
10,B10,1.41
11,B11,1.56
12,B12,1.03
13,B13,0.367
14,B14,0.996
15,B15,1.35
16,B16,0.268
17,B17,1.11
18,B18,0.711
19,B19,0.69
20,B20,0.82
21,B21,2.68
22,B22,0.449
